Data from the CheMixHub viscosity set.
± gives the uncertainty stated by the source. Not every entry of the source has a single result; some have several. This list holds those alone. The source may hold further records. The records of an entry are repeats (runs, samples, wells, individuals or studies). A tag in brackets gives the origin of a value. A, B and so on number the origins entry by entry.

Settings: 101 kPa

| Structure (SMILES) | viscosity (298.15 K) | viscosity (303.15 K) | viscosity (308.15 K) |
| --- | --- | --- | --- |
| CCC(C)O (stereo not given) | 2.58 ± 0.6 mPa·s [study A] and 2.934 ± 0.077 mPa·s [study B] and 3.06 ± 0.028 mPa·s [study C] and 3.15 ± 0.048 mPa·s [study D] |  |  |
| CCCCn1cc[n+](C)c1.F[B-](F)(F)F | 98.95 ± 6.9 mPa·s [study A] and 98.86 ± 6.3 mPa·s [study B] and 106 ± 2 mPa·s [study C] and 116 ± 40 mPa·s [study D] | 84.2 ± 1.6 mPa·s [study A] and 78.84 ± 1.6 mPa·s [study B] and 76.32 ± 4.7 mPa·s [study C] and 82.2 ± 1.7 mPa·s [study D] |  |
| O=S1(=O)CCCC1 |  |  | 8.95 ± 0.19 mPa·s [study A] and 9.033 ± 0.12 mPa·s [study B] and 8.833 ± 0.045 mPa·s [study C] and 8.795 ± 0.07 mPa·s [study D] and 9.05 ± 0.91 mPa·s [study E] and 9.05 ± 0.93 mPa·s [study F] |
| Cc1cccc(C)c1 |  | 0.538 ± 0.005 mPa·s [study A] and 0.5531 ± 0.015 mPa·s [study B] and 0.5009 ± 0.0079 mPa·s [study C] and 0.572 ± 0.015 mPa·s [study D] |  |
